Paper PMC7380579

Key:
[1] = test system: PerR (PerR:Zn,Mn) (Streptococcus oligofermentans (AS 1.3089?)); assay: EMSA; details: 10 mM Tris-HCl pH 8.0, 50 mM NaCl, 5% glycerol, 10 ug/ml BSA, 2 ng/ul poly(dI-dC), 0.5 mM DTT, 1 mM MnCl2, Chelex-treated, 0.2 nM probe, 30 C, 30 min
[2] = molecular target: T1, PerR (PerR:Zn,Mn) (Streptococcus oligofermentans (AS 1.3089?)) (UniProt A0ABN4B511); assay: EMSA; details: 10 mM Tris-HCl pH 8.0, 50 mM NaCl, 5% glycerol, 10 ug/ml BSA, 2 ng/ul poly(dI-dC), 0.5 mM DTT, 1 mM MnCl2; Chelex-treated; 0.2 nM probe; 30 C, 30 min; 6% PAGE …
T1 sequence: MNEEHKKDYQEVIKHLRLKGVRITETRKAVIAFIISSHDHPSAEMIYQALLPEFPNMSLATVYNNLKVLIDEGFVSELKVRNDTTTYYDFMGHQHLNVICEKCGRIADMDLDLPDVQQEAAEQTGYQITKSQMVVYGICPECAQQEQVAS

Row | Substance | Kd ([1]; 1 mM Mn2+, 6% PAGE o) | binding signal (% of untreated complex) ([1]; PerR:Zn,Mn (50 nM) pretreated with 200 uM H2O2, 5 min (text: ~59% inactivated), 6% PAGE …) | binding [2] | Kd [2]
1 | dpr promoter | 50 nM | 41 | – | –
2 | CATTTCAATCATTGTTACACCTCTTTTGTTTTAATATACATTAAAATGAAAATTAAGTCAAGTTAATTTTTGAAAAATCCTTGAAATCAATATAGGAAATATTTGAAAAAAGGAGCTAATTTTGATAAGGTTATATCAAAAGTATGAAAGTGAGAACAAGATGACACGTTTACAAGATGATTTTTATGATGCCATTAATGGTGAATGGGCCAAAACAGCGGTTATCCCAGAT (double strand) [mntABC promoter] | – | – | no binding | –
3 | AATGACCAAGCCTAGAAATGAGGCTAAAATCGTTCCGACCAGAAAAAAGTATAGATGTATCATACTTATTTATTCGTGATTTTGAGCAGAAAAATTTTGAAATTTTACAACTTTTCTAATAAAGTAAAATTTTTAGTTTTAATACTTGACTTTCTTAATTAGAAGCATTATAATTAAAACATAATCAATAAAGATTAGAATGATTACAAATAAAAAGAGAGGTATCATT (double strand) [dpr promoter] | – | – | binds | 50 nM
